Results from PubChem BioAssay AID686979 (National Center for Advancing Translational Sciences (NCATS), 2013).
Out of some 420,000 compounds screened, about 50,000 (12%) were called active. This list was built around the results that the source calls inconclusive (neither active nor inactive); the mix of calls is not that of the screen. Calls come from the whole dose curve; as a rule, active = well fitted inhibition curve with a large enough effect; inconclusive = small, poorly fitted or top-dose-only effect; inactive = flat fitted curve, though single readings scatter. Potencies of inconclusive entries are left out as doubtful fits.

experiment: qHTS for Inhibitors of human tyrosyl-DNA phosphodiesterase 1 (TDP1): qHTS in cells in presence of CPT; details: chicken DT40 Tdp1-/-;hTDP1 cells + 20 nM CPT, ATP luminescence, 48 h; series mostly up to 46.2 µM; note: nearly all actives have a fitted effect of over 55% in size
How it was run: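 Chicken DT40 Tdp1-/- cells stably complemented with human TDP1 were seeded at 400 cells/well in medium containing 20 nM camptothecin, exposed to pin-transferred compounds, and grown at 37 °C for at least 48 hr. Viability was read as ATP luminescence.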
Potency is the fitted concentration of half-maximal effect; tags give direction and shape of the fitted curve.

| Structure (SMILES) | Potency |
| --- | --- |
| CCN(CC)C(=O)CS(=O)CC(=O)Nc1cc(OCCOC)c(Cl)cc1Cl (stereo not drawn) | inactive |
| COc1ccc(NC(=O)CCCn2c(=O)c3cccn3c3ccccc32)c(OC)c1 | active: 13 µM |
| COc1ccc(C(=O)Oc2c(Sc3ccc(Cl)cc3)c(C)nn2C(C)(C)C)cc1OC | active: 23.1 µM |
| CCCCn1c(N)c(-c2nc3ccccc3s2)c2c([N+](=O)[O-])nn(CC)c(=O)c21 | inconclusive [inhibitor, single point] |
| CCc1ccc(-n2nc3ccc(NC(=O)c4ccc5c(c4)OCO5)cc3n2)cc1 | active: 20.6 µM |
| CC(NCc1ccc(-c2ccccc2)cc1)C(O)c1ccccc1 (stereo not drawn) | inconclusive [inhibitor, single point] |
| CCOc1cc(NC(=O)c2ccccc2C)c(OCC)cc1NC(=O)C1=Cc2ccccc2OC1 | active: 7.31 µM |
| COc1cccc(OC)c1-c1nnc(-c2cn(C)c3ccccc23)o1 | inconclusive [inhibitor, full curve, poor fit] |
| COc1cc(C(=O)N2CCc3ccccc32)c([N+](=O)[O-])cc1OC | inactive |
| Cc1nn(Cc2ccccc2)c(C)c1NC(=O)CSc1nc(C2CC2)nc2c1cnn2-c1ccccc1 | active: 16.4 µM |
| COc1ccc(-c2[nH]ncc2CNC(C)c2cn(C)nc2C)c(F)c1 (stereo not drawn) | inactive |
| CNC(=O)c1cc(NC(=O)N(CCC#N)CCN(C(=O)NC(Cc2ccccc2)C(=O)NC(CC(C)C)C(=O)NC)c2ccccc2)ccc1OC (stereo not drawn) | inconclusive [inhibitor, single point] |
| Cc1c(CCNC(=O)Cc2ccc(F)cc2)sc2nc(-c3ccc(F)cc3)nn12 | inconclusive [inhibitor, single point] |
| Cc1nnc(NC(=O)C2CCCN2C(=O)Nc2ccccc2)s1 (stereo not drawn) | inactive |
| CS(=O)(=O)c1ccc(Cl)c(C(=O)Nc2ccc3nc(N4CCOCC4)sc3c2)c1 | inconclusive [inhibitor, single point] |
| CC12CC3(C)CC(C)(C1)CC(C(=O)NC(=S)N1CCOCC1)(C2)C3 | inconclusive [inhibitor, single point] |
| CC(=O)Nc1ccc(NC(=O)C(C)OC(=O)/C=C/c2cn(-c3ccccc3)nc2-c2cccnc2)cc1 (stereo not drawn) | inconclusive [inhibitor, single point] |
| COc1ccc(C(=O)C2CCCN(Cc3c[nH]c4ccccc34)C2)c(OC)c1 (stereo not drawn) | active: 7.31 µM |
| O=C(Cn1c(=O)c2ccccc2n(CC(=O)Nc2ccc(Cl)cc2)c1=O)NCCc1ccccc1 | inconclusive [inhibitor, single point] |
| O=C(NCc1ccccc1)c1c[nH]c2ccc(F)cc2c1=O | inconclusive [inhibitor, single point] |
| CN(C)C(=S)NC(=O)C12CC3(C)CC(C)(CC(C)(C3)C1)C2 | inactive |
| O=C(Nc1ccc2c(c1)C(=O)NC2=O)c1cccc(C(F)(F)F)c1 | inactive |
| COC(=O)c1cc(COC(=O)c2ccc(OC)c(S(=O)(=O)N3CCCC3)c2)oc1C | inconclusive [inhibitor, single point] |

| Structure (SMILES) | Potency |
| --- | --- |
| CCOC(=O)N1CCN(C2CC(=O)N(c3ccc(Cl)c(Cl)c3)C2=O)CC1 (stereo not drawn) | inconclusive [inhibitor, single point] |
| CSc1cccc(CN2CCN(CCc3ccccc3)C(CCO)C2)c1 (stereo not drawn) | inconclusive [inhibitor, partial curve] |
| c1cncc(CNc2nc(-c3ccc4c(c3)OCO4)nc3ccccc23)c1 | inconclusive [inhibitor, single point] |
| CCN=C1S/C(=C\c2cn(C(C)=O)nc2-c2ccccc2)C(=O)N1CC | active: 16.4 µM |
| CC1(C(=O)Nc2ccc(Cl)c(Cl)c2)CCN1C(=O)Cc1cccc2ccccc12 (stereo not drawn) | inconclusive [inhibitor, single point] |
| COc1cc2c(cc1NC(=O)c1ccccc1F)CCCC2 | inconclusive [inhibitor, single point] |
| O=C1C(c2cccc(Br)c2)N(CCc2ccccc2)C(=O)CN1C1CCCCC1 (stereo not drawn) | inactive |
| Cc1cccc(CNS(=O)(=O)c2csc(C(N)=O)c2)c1 | inconclusive [inhibitor, single point] |
| CS(=O)(=O)N1Cc2ccccc2CC1C(=O)OCC(=O)NCCc1ccc(S(N)(=O)=O)cc1 (stereo not drawn) | inactive |
| COc1ccc(N2CCN(C(=O)CSc3nc4[nH]ncc4c(=O)n3-c3ccc(Br)cc3)CC2)cc1 | inconclusive [inhibitor, single point] |
| CC1(C)CC(=O)C2=C(C1)OC(N)=C(C#N)C2c1ccccc1[N+](=O)[O-] (stereo not drawn) | active: 20.6 µM |
| CCOC(=O)c1cnc(SC)nc1Oc1cccc(NS(=O)(=O)c2ccc(C)cc2)c1 | inconclusive [inhibitor, single point] |
| CCN(CC)C(=O)Cn1cc(C(=O)C(=O)Nc2ccc3c(c2)OCCO3)c2ccccc21 | active: 18.4 µM |
| COc1cccc(/C=C2\SC(=S)N(CCCC(=O)Nc3cc(C)on3)C2=O)c1 | inactive |
| CC1OC(Oc2ccc3ccc(=O)oc3c2-c2c(O)ccc3cc(Oc4ccc5ccc(=O)oc5c4)c(=O)oc23)C(O)C(O)C1O (stereo not drawn) | inactive |
| Cc1ccc(NC(=O)c2c3c(nc4ccccc24)CCC3)cc1 | inactive |
| COc1ccc(N2C(=O)CSC2c2ccc([N+](=O)[O-])cc2)cc1 (stereo not drawn) | inactive |
| COc1ccc(N2C(=O)CS(=O)(=O)C23C(=O)N(Cc2ccc(F)cc2)c2ccc(C)cc23)cc1 (stereo not drawn) | inconclusive [inhibitor, partial curve, poor fit] |
| Cc1ccc(C(=O)c2cn[nH]c2-c2cc(Cl)ccc2O)cc1 | inconclusive [inhibitor, single point] |
| COc1ccccc1CNC(=O)CSc1nc2nc(C)c(Cc3ccccc3Cl)c(C)n2n1 | inconclusive [inhibitor, full curve, poor fit] |
| O=c1[nH]c2ccccc2cc1CN(Cc1ccco1)S(=O)(=O)c1ccc(F)cc1 | inconclusive [inhibitor, single point] |
| Cc1ccccc1NC(=O)c1c(NC(=O)c2ccco2)sc2c1CCC(C(C)(C)C)C2 (stereo not drawn) | inactive |
| O=C(CC1Nc2cccc3cccc(c23)NC1=O)Nc1ccccc1 (stereo not drawn) | inconclusive [inhibitor, single point] |

| Structure (SMILES) | Potency |
| --- | --- |
| COc1cccc(/C=N/n2cnc3ccccc32)c1OC | inconclusive [inhibitor, single point] |
| CCC(=O)N1CCc2cc(Br)cc(S(=O)(=O)N3CCCC(C(=O)Nc4cccc(C)c4C)C3)c21 (stereo not drawn) | inconclusive [inhibitor, partial curve] |
| Cc1ccc(Cl)cc1NC(=O)C1CCCN(S(=O)(=O)c2cccc3cccnc23)C1 (stereo not drawn) | inconclusive [inhibitor, single point] |
| NNc1ncnc2scc(-c3ccc(Cl)cc3)c12 | inconclusive [inhibitor, single point] |
| O=C(/C=C/c1cccc(O)c1)c1cccnc1 | active: 8.2 µM |
| CC(C)CNC(=O)c1ccccc1NC(=O)c1ccc(CSc2ccccc2)cc1 | inconclusive [inhibitor, single point] |
| CCOc1ccc(N(CC(=O)NC2CC2)S(=O)(=O)c2ccc(C)cc2)cc1 | inactive |
| Cc1noc(C)c1S(=O)(=O)N1CCCC(C(=O)Nc2ccc(Cl)cn2)C1 (stereo not drawn) | inconclusive [inhibitor, single point] |
| Cc1cccc(N(C)S(=O)(=O)c2c(C)[nH]c(C)c2C(=O)N2CCCC2)c1 | inconclusive [inhibitor, single point] |
| COc1cc(C(Nc2ccccn2)c2ccc3ccc(C)nc3c2O)cc(OC)c1O (stereo not drawn) | active: 3.66 µM |
| O=C(Nc1ccccc1O)c1ccc([N+](=O)[O-])cc1 | inconclusive [inhibitor, single point] |
| O=C(CC(O)c1ccncc1)c1ccccc1O (stereo not drawn) | inconclusive [inhibitor, single point] |
| COc1cccc(-c2ncc3ccccc3c2COC(=O)N2CCOCC2)c1 | inconclusive [inhibitor, partial curve, poor fit] |
| CS(=O)(=O)N(CC(=O)Nc1ccccc1C(=O)NCc1ccco1)c1ccc2c(c1)OCCO2 | active: 18.4 µM |
| CC(C)N(C(=O)Cn1cc(S(=O)(=O)CC(=O)NCCc2ccccc2)c2ccccc21)C(C)C | inconclusive [inhibitor, partial curve] |
| COCCn1c(=NC(=O)c2ccc(S(=O)(=O)N3CCOCC3)cc2)sc2cc(S(N)(=O)=O)ccc21 | inconclusive [inhibitor, single point] |
| CC1(C(=O)NCCC#N)CCN1C(=O)Cc1ccc(-c2ccccc2)cc1 (stereo not drawn) | inconclusive [inhibitor, single point] |
| CCOC(=O)C1CCCN(C(=O)CNC(=O)c2ccc(Br)o2)C1 (stereo not drawn) | inactive |
| Cc1sc2nc(CSc3ccccc3)nc(N3CCN(C)CC3)c2c1C | inconclusive [inhibitor, partial curve, poor fit] |
| CCc1ccc(Nc2nc(C)cc(C)c2C(N)=O)cc1 | inconclusive [inhibitor, partial curve] |
| Cc1ccc2cc(CCNC(=O)Cc3cccs3)c(=O)[nH]c2c1 | inactive |
| O=C1CSC(c2ccccn2)N1c1cccc(Cl)c1 (stereo not drawn) | inconclusive [inhibitor, full curve, poor fit] |
